Hit rate of the full screen: of about 360,000 compounds, about 25,000 (6.9%) were called active. The shares of active, inactive and inconclusive entries below differ from those in the screen. Calls follow the shape of the dose curve; as a rule, active = well fitted inhibition curve with a large enough effect; inconclusive = small, poorly fitted or top-dose-only effect; inactive = flat fitted curve, though single readings scatter. Potencies of inconclusive entries are doubtful fits and often do not repeat.
What follows are compounds tested against Luciferin 4-monooxygenase (Photinus pyralis) (UniProt P08659) (assay: qHTS profiling assay for firefly luciferase inhibitor/activator using purifed enzyme and Km concentrations of substrates (counterscreen for miR-21 project)). Settings: purified FLuc, luminescence inhibition; series mostly up to 57.5 µM.
Chain of UniProt P08659 (P08659 whole entry, looked up): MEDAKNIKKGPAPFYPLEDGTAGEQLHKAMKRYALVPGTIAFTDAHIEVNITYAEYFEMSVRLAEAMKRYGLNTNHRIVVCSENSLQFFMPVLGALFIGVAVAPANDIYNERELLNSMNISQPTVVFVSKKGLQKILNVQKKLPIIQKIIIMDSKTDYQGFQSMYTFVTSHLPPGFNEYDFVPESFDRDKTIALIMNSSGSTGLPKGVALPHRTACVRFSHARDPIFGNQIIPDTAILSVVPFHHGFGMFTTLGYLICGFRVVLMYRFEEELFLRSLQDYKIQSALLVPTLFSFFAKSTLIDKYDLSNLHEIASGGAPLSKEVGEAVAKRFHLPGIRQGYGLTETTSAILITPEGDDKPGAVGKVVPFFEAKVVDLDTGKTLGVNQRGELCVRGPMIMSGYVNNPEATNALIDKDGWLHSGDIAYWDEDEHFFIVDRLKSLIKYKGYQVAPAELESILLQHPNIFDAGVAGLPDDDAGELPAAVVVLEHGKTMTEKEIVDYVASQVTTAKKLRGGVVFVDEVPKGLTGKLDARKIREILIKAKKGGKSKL
Summary of the method: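 Purified P. pyralis luciferase, 10 nM final, with Km-level 10 uM D-luciferin and 10 uM ATP in 50 mM Tris acetate pH 7.5, 10 mM Mg acetate, 0.01% Tween-20, 0.05% BSA; 6-point qHTS titration about 60 µM downward; luminescence read.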
Also: nearly all actives have a fitted effect of over 55% in size.
Potency is read from the fitted curve at half-maximal effect; tags tell the direction and shape of the fitted curve.

| Compound | Potency |
| --- | --- |
| O=C(c1nc2ccccc2[nH]1)c1ccccc1[N+](=O)[O-] | inconclusive: 26.9 µM [inhibitor, single point] |
| O=C(COC(=O)CCc1nc2ccccc2c(=O)[nH]1)Nc1ccc(N2CCOCC2)cc1 | inactive |
| CCOC(=O)c1[nH]c2cc3c(cc2c1NC(=O)CN1CCC(C)CC1)OCO3 | inactive |
| CN(C)c1ccc(C(=O)OCc2ccccc2)cc1 | active: 12 µM |
| COC(=O)C1CCN(C(c2ccccc2Cl)c2sc3nc(-c4ccco4)nn3c2O)CC1 (configuration not stated) | inconclusive: 23.9 µM [inhibitor, partial curve, poor fit] |
| Cc1ccc(NC(=O)c2ccc([N+](=O)[O-])o2)cc1C | active: 21.3 µM |
| CCc1ccc(CN2CCC(n3nccc3NC(=O)c3ccccc3)CC2)o1 | inactive |
| C=CCOc1ccccc1/C=N/NC(=O)Cc1ccccc1 | inconclusive: 37.9 µM [inhibitor, single point] |
| Cn1c2ccccc2c(=O)c2ccc(C#CC3(N)CCCCC3)cc21 | active: 6.75 µM |
| Cc1c(C(=O)Oc2cc(N)n(S(C)(=O)=O)n2)cccc1[N+](=O)[O-] | active: 21.3 µM |
| CC(C)(C)Sc1ccc([N+](=O)[O-])cc1C(=O)Nc1ccncc1 | inconclusive: 37.9 µM [inhibitor, single point] |
| COc1ccc(/C(N)=N/OC(=O)Cc2ccccc2OC)cc1 | inconclusive: 16.9 µM [inhibitor, partial curve] |
| COc1ccccc1Nc1nc(-c2sc(NC(=O)C(C)(C)C)nc2C)cs1 | inconclusive: 21.3 µM [inhibitor, single point] |
| COc1cc(NC(=O)c2ccc3c(c2)OCO3)ccc1NC(=O)c1cccs1 | active: 10.7 µM |
| Cc1ccc(/C=C2\SC(=S)N(CCCC(=O)Nc3cccnc3)C2=O)cc1 | inconclusive: 8.49 µM [inhibitor, partial curve] |
| CC(=O)[C@H]1[C@H]([C@H](O)[C@H](O)CO)O[C@](O)(C(=O)O)C[C@@H]1O | inconclusive: 23.9 µM [inhibitor, single point] |
| CCOC(=O)c1ccc(-c2csc(NC(=O)CN3CCC(C)CC3)n2)cc1 | inactive |
| COc1ccc(CC(=O)Nc2ccc(-c3cn4cccc(C)c4n3)cc2)cc1OC | inconclusive: 21.3 µM [inhibitor, single point] |
| CCN(C(=O)C1CCN(c2nc(-c3ccc(OC)cc3)no2)CC1)c1ccc(OC)cc1 | inconclusive: 23.9 µM [inhibitor, partial curve, poor fit] |
| CCOC(=O)C1=C(NC(=O)c2ccc(Br)o2)Nc2ccccc2N=C1 | inactive |
| O=C(NNc1cccc(Cl)c1)c1cccnc1Oc1ccccc1 | inactive |
| Cc1ccc(NC(=O)c2ccc(COc3ccc4c(c3)CCC4)cc2)c(C)c1 | inactive |
| Cc1c(C#N)sc(C(N)=O)c1C | inactive |
| O=C(Nc1ccccc1)C1=C[C@@H](C2CCCCC2)C[C@@H](OCc2ccc(CO)cc2)O1 | inconclusive: 37.9 µM [inhibitor, single point] |

| Compound | Potency |
| --- | --- |
| CCCOc1cccc(-c2nc3ccccc3c(=O)o2)c1 | active: 8.49 µM |
| CN(C(=O)CSc1nc2ccc(NC(=O)COc3ccccc3Cl)cc2s1)c1ccccc1 | inactive |
| O=C(CSCC(=O)N1CCCCC1)OCC(=O)c1c[nH]c2ccccc12 | inconclusive: 19 µM [inhibitor, partial curve] |
| CC(C)(C)c1ccc(OCC(=O)NC(Cc2c[nH]c3ccccc23)C(=O)O)cc1 (configuration not stated) | inconclusive: 12 µM [inhibitor, partial curve] |
| Cc1ccc2oc(Nc3nc(C)cc(C)n3)nc2c1 | inconclusive: 37.9 µM [inhibitor, partial curve, poor fit] |
| COc1cc(/C=N/NC(=S)NC2CC3C=CC2C3)cc(OC)c1OC (configuration not stated) | inactive |
| O=C(Nc1ccc(F)cc1F)c1cc2ccccc2oc1=O | active: 0.757 µM |
| COc1ccccc1-n1nnnc1SCC(=O)Nc1cc(C)on1 | inactive |
| CCCSCCCNC(=O)c1cc2n(n1)CCCN(Cc1ccc(C)cc1)C2=O | inactive |
| Cc1ccc(C)c(NC(=O)CSc2ncc3c(n2)-c2cc(Cl)ccc2N(Cc2ccccc2F)S3(=O)=O)c1 | inactive |
| COC(=O)C1CCN(C(=O)COC(=O)c2cc(-c3ccccc3)nc3ccc(OC)cc23)CC1 | inconclusive: 16.9 µM [inhibitor, partial curve] |
| Cc1cc(CNC(=O)c2cc(-c3ccccc3)nc3ccccc23)nn1C | inconclusive: 21.3 µM [inhibitor, single point] |
| COc1ccc(/C=N/NC(=O)c2cc(C34CC5CC(CC(C5)C3)C4)[nH]n2)cc1OC | inconclusive: 19 µM [inhibitor, partial curve] |
| N/C(=N\OC(=O)Cc1ccccc1[N+](=O)[O-])c1cccc(Br)c1 | inconclusive: 23.9 µM [inhibitor, partial curve, poor fit] |
| Cc1ccc2cc3c(N)[nH]nc3nc2c1 | inconclusive: 37.9 µM [inhibitor, single point] |
| O=C1c2cccc3cccc(c23)N1CN1CCN(c2ccccn2)CC1 | inconclusive: 23.9 µM [inhibitor, partial curve, poor fit] |
| Cc1noc2ncnc(N3CCN(c4ccccc4F)CC3)c12 | inactive |
| COc1ccc(/C=C/C(=O)Nc2ccc(OC)nc2)cc1 | active: 7.57 µM |
| O=C(O)c1cn(-c2ccccc2)nc1-c1ccncc1 | inconclusive: 4.26 µM [inhibitor, partial curve, poor fit] |
| Cc1cccc(CSc2nc3cccnc3n2Cc2ccc(C(=O)NCc3ccco3)cc2)c1 | active: 19 µM |
| COC(=O)c1ccc(C(=O)Nc2ccc(-c3nc4cc(NC(=O)c5ccc(C(=O)OC)cc5)ccc4o3)cc2)cc1 | inactive |
| COc1cc(/C=C2\SC(=S)N(N(C)c3ccccc3)C2=O)ccc1O | inconclusive: 37.9 µM [inhibitor, single point] |
| O=C1c2ccccc2CCc2ccc(Br)cc21 | inconclusive: 10.7 µM [inhibitor, single point] |
| O=C(O)c1ccc(Cl)c(NC(=S)NC(=O)c2ccccc2[N+](=O)[O-])c1 | inconclusive: 26.9 µM [inhibitor, partial curve, poor fit] |

| Compound | Potency |
| --- | --- |
| O=C1c2ccccc2C(=O)N1/N=C/c1ccc(O)c(O)c1O | active: 16.9 µM |
| CC(C)NC(=O)CSc1nc2ccccc2c(=O)n1Cc1ccc(C(=O)NC(C)C)cc1 | inactive |
| CC(CNC(=O)c1ccc2c(c1)nc1n2CCOC1)c1ccccc1 (configuration not stated) | inconclusive: 21.3 µM [inhibitor, single point] |
| S=C(NCCCN1CCOCC1)Nc1ccc(-c2nc3ccccc3[nH]2)cc1 | inconclusive: 23.9 µM [inhibitor, single point] |
| CNS(=O)(=O)c1cc(-c2nnc(Nc3ccc(NC(C)=O)cc3)c3ccccc23)ccc1C | inconclusive: 21.3 µM [inhibitor, partial curve, poor fit] |
| COc1cc2c(cc1OC)C(COc1ccc3c(C)cc(=O)oc3c1)N(C(=O)c1ccco1)CC2 (configuration not stated) | inactive |
| CC(Sc1nc2ccccc2[nH]1)C(=O)Nc1ccc2c(c1)OCCO2 (configuration not stated) | active: 21.3 µM |
| CCOc1ccc(NC(=O)Nc2ccc3c(c2)N(C)C(=O)CS3)cc1 | inactive |
| O=C1CCCN1CCCNc1ncnc2c1[nH]c1ccc(Cl)cc12 | inconclusive: 16.9 µM [inhibitor, partial curve] |
| O=C(NNC(=O)C12CC3CC(CC(C3)C1)C2)c1csc(N2CCOCC2)n1 | inconclusive: 16.9 µM [inhibitor, partial curve, poor fit] |
| O=[N+]([O-])c1ncccc1OCc1ccc(-c2ccccc2)cc1 | inconclusive: 26.9 µM [inhibitor, partial curve, poor fit] |
| O=C(CSc1nc2ccccc2o1)Nc1ccc(N2CCOCC2)c(Cl)c1 | inconclusive: 37.9 µM [inhibitor, single point] |
| O=C(Cn1cncn1)NCc1ccccc1Br | inconclusive: 21.3 µM [inhibitor, single point] |
| CCCCN(C)C(=O)c1cc2cc3ccc(OC)cc3nc2s1 | active: 0.757 µM |
| Cc1ccc(-c2nnn(CC(=O)Nc3nnc(C(C)C)s3)n2)cc1 | inconclusive: 26.9 µM [inhibitor, single point] |
| O=C(/C=C/c1ccccc1)c1ccc2c(c1)OCCCCO2 | active: 0.379 µM |
| Cc1ccccc1C(=O)NCCSc1ccccc1 | active: 9.53 µM |
| COc1cccc(C(=O)Nc2ccc3c(c2)n(C)c(=O)n3C)c1 | inconclusive: 37.9 µM [inhibitor, partial curve, poor fit] |
| Cc1csc(Nc2ccc(C(=O)O)cc2)n1 | inconclusive: 37.9 µM [inhibitor, partial curve, poor fit] |
| CCCCOc1ccc(CSc2n[nH]c(C)n2)cc1 | inconclusive: 15.1 µM [inhibitor, partial curve] |
| COc1ccc(CN(C)C(=O)c2[nH]c(C)c(C(C)=O)c2C)c(OC)c1OC | inactive |
| O=C(N/N=C\c1cc(Br)cs1)C1COc2ccccc2O1 (configuration not stated) | inconclusive: 26.9 µM [inhibitor, partial curve, poor fit] |
| COc1ccc(-n2c(C)cc(/C=C3\C(=N)N4N=C(CC(=O)N5CCOCC5)SC4=NC3=O)c2C)cc1 | inconclusive: 23.9 µM [inhibitor, single point] |
| O=C(N/N=C/c1cc([N+](=O)[O-])ccc1O)c1ccc(COc2ccc3c(c2)CCC3)o1 | inactive |
